Measurements as given in article PMC4336329 (PLoS ONE, 2015).
About 14,000 (4.5%) of roughly 310,000 compounds showed an effect of 50% or more. Effects have a minus sign here. Some of the results follow.

These compounds were tested against human ether-à-go-go-related gene (hERG) potassium channel (human, UniProt Q12809) (assay: primary screen, population patch clamp on CHO cells stably expressing hERG).
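Further: peak tail current of the secondary pulse compared with the same well before compound.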

Sequence of human ether-à-go-go-related gene (hERG) potassium channel (Q12809 whole entry, looked up): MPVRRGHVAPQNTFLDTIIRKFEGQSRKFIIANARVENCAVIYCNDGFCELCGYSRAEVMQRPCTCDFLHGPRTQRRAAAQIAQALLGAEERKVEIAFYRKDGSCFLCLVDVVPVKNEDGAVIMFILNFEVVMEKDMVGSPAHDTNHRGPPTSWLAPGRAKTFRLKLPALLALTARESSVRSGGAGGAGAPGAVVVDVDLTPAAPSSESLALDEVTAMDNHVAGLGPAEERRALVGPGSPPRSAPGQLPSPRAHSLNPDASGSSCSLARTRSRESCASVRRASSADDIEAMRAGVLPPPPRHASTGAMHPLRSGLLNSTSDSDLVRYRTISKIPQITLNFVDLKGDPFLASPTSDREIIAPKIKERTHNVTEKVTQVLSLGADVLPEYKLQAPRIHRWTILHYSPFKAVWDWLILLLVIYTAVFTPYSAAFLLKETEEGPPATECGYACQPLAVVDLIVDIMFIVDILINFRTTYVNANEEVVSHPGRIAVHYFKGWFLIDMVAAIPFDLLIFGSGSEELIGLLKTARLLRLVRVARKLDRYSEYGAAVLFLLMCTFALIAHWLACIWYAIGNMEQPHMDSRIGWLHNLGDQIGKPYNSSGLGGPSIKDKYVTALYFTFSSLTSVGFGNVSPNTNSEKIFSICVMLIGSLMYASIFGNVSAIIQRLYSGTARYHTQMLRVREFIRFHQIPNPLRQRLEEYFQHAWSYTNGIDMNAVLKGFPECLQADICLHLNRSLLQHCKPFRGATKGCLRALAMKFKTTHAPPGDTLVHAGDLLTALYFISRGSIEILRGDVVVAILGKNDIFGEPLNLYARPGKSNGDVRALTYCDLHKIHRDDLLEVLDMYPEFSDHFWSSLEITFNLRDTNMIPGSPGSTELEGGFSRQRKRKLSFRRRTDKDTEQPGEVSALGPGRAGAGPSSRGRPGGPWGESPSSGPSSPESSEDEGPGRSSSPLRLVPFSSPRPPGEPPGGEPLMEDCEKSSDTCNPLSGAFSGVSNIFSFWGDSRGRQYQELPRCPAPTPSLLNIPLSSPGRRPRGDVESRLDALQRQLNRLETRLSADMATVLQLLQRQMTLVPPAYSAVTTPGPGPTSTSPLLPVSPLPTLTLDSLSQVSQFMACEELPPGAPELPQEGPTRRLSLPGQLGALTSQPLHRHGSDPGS

Structure (SMILES)	hERG current change (%, negative = inhibition) at 10uM
Cc1nc2ccccc2nc(C)c1=NOCc1cccc(F)c1	2.12%
CC(C)c1nnc(NC(=O)C2CCCN2S(=O)(=O)c2ccc(Cl)cc2)s1 (centres unmarked)	7.71%
COc1cc(N=c2c([N+](=O)[O-])nn(-c3ccc4c(c3)OCCO4)n2O)cc(OC)c1	-0.72%
CCOC(=O)c1ccccc1NC(=O)COc1ccccc1	7.31%
Cc1cc(-n2c(C)cc(C(=O)CN3C(=O)NC4(CCCCC4)C3=O)c2C)no1	-21.1%
CCOC(=O)COn1c(-n2nc(C)cc2C)nc2ccccc2c1=O	0.487%
Cc1ccc(O)c(C)c1	17.2%
COc1ccc(OC)c(NC(=O)C2C3CC4OC(=O)C2C4C3)c1 (centres unmarked)	11.2%
Cc1ccc(NC(=O)c2ccc3c(c2)C(=O)N(Cc2cccnc2)C3=O)c(C)c1	16.6%
COCCCNC(=O)CN(c1cccc(Cl)c1C)S(C)(=O)=O	1.39%
Fc1ccc(Sc2ccccc2CNC2=NCCN2)cc1.I	-16%
Cc1cc(S(=O)(=O)N2CCN=C2c2ccccc2)ccc1F	7.23%
COc1ccc(NC(=O)C(C)N=C2NS(=O)(=O)c3ccccc32)cc1S(N)(=O)=O (centres unmarked)	-2.12%
O=C(O)C/C(=C\c1cc2c(cc1Br)OCO2)c1nc2ccccc2s1	6.44%
FC(F)Oc1ccc(NC(=S)NC2CCSc3ccccc32)cc1 (centres unmarked)	-2.01%
COc1cc(C(=O)N/C(=C\c2cn(C)c3ccccc23)C(=O)N2CCOCC2)cc(OC)c1OC	11.7%
COc1ccc(C2C3=C(CC(C)(C)CC3=O)Oc3ncn(CCCn4ccnc4)c(=N)c32)cc1 (centres unmarked)	-16.6%
COc1ccc(CNc2nc3ccccc3n2CCN2CCOCC2)cc1	-64.6%
CCc1ccccc1N1CC23C=CC(O2)C(C(=O)OC)C3C1=O (centres unmarked)	14.5%
Fc1ccc(CNC(=S)NC2CCCCC2)cc1	-19.9%

Structure (SMILES)	hERG current change (%, negative = inhibition) at 10uM
CC(C)=C1Cc2ccccc2C1=O	5.59%
CC(C)NS(=O)(=O)c1ccc(OCC(=O)Nc2ccc(F)cc2)cc1	14.6%
Cn1c(O)c(C=NCCN2CCOCC2)c(=O)n(C)c1=S	-1.85%
O=C(/C=C/c1ccccc1[N+](=O)[O-])NCCCn1ccnc1	2.43%
CC1CC(C)CN(CCCCOc2ccc([N+](=O)[O-])cc2)C1.O=C(O)C(=O)O (centres unmarked)	-78.8%
O=[N+]([O-])c1ccc(Cl)cc1N1CCCC1	0.717%
Cc1ccccc1-n1c(C)nc2sccc2c1=O	-2.18%
Cc1ccc(Cn2nnc3c(=O)[nH]c(C4CCN(S(=O)(=O)/C=C/c5ccccc5)CC4)nc32)cc1	-9.62%
COc1ccccc1CC(=O)NNC(=O)c1cccs1	26.2%
Cc1nc2ccccc2c(=O)n1NC(=O)c1cccnc1Cl	26.9%
COc1cc(C#N)c(NS(=O)(=O)c2ccc3[nH]c(=O)sc3c2)cc1OC	16.9%
CCN(CC)C(=O)Oc1ccc2ccccc2c1Br	-3.86%
Cn1cnc(S(=O)(=O)N2CCc3ccccc32)c1	11.1%
COC(=O)c1cc(Cn2nc(C(=O)O)c3ccccc3c2=O)oc1C	15.8%
CC(=O)Nc1ccc(Oc2nc(C(F)(F)F)nc3ccccc23)cc1	22.8%
Nn1c(SCC(=O)Nc2cc(S(=O)(=O)N3CCOCC3)ccc2Cl)nnc1-c1cccnc1	11.2%
Cc1ccc(NC(=S)N2CCN(C)CC2)c(C)c1	6.94%
CN=c1scc(-c2ccc(Br)cc2)n1C	-31.7%
COCCCNC(=S)Nc1ccccc1[N+](=O)[O-]	18.8%
Cc1ccc(-n2c(SCC(=O)N3CCCc4ccccc43)nnc2-c2cccnc2)c(C)c1	-0.0294%

Structure (SMILES)	hERG current change (%, negative = inhibition) at 10uM
CC(C)C(=O)Nc1ccc(Br)cc1Cl	1.21%
CSc1ccccc1C(=O)Nc1ccc2c(c1)CCC2	-30.5%
CCOC(=O)c1cc(S(=O)(=O)NC2CCC(C)CC2)cn1C (centres unmarked)	-3.98%
COCCCN1C(=O)N(c2ccccc2)C(=O)C1CC(=O)Nc1ccccc1 (centres unmarked)	18.6%
S=C1SCN(Cc2cccnc2)CN1Cc1cccnc1	-20.9%
COc1ccc(C(=O)N2CCC(C(=O)c3c(C)cc(C)cc3C)CC2)cc1	-55.3%
CC1CN(C(=O)c2ccccc2)C(=Nc2cccc(S(=O)(=O)N(C)C)c2)S1 (centres unmarked)	-23.1%
O=C(Cn1cnc2c(nnn2Cc2ccc(F)cc2)c1=O)Nc1ccccc1	25.6%
Cc1ccccc1NC(=O)OCc1cccnc1Oc1ccc(Cl)cc1	6.26%
Cc1[nH]n(C(N)=S)c(=O)c1N=Nc1ccc(S(=O)(=O)N2CCCC2)cc1	-1.91%
Br.CC(C)(C)N1Cc2ccccc2C1=N	-3.56%
O=C1CCC/C(=N\NC(=O)COc2ccc(Cl)cc2)C1	15.7%
O=C(Cn1cc2c(n1)CCCC2)NCC1CCCO1 (centres unmarked)	7.74%
CCOC(=O)/C(C#N)=C/Nc1cc(OC)ccc1OC	11.2%
O=C(C[n+]1cc(-c2ccc(F)cc2)n2c1CCC2)OCc1ccccc1.[Br-]	-11.9%
Nc1nnc(Cc2ccc(Cl)c(Cl)c2)s1	-4.56%
CCn1cc(C(=O)NCc2ccc3c(c2)OCO3)c(=O)c2cc(S(=O)(=O)N(C)C)ccc21	-6.75%
Cc1ccccc1NC(=O)C(=O)NCCCN1CCOCC1	17.7%
Cc1cc(C)cc(OCc2nnc(SCC(=O)NC3CC3)n2C)c1	-4.84%
